The text below walks through data of a collection of fitness landscapes (doi:10.1126/science.1257360).

The chains are these.
B1: PhoQ; a variant is named by its letters at X, in order, P23837 (parent)
chain: MKKLLRLFFPLSLRVRFLLATAAVVLVLSLAYGMVALIGYSVSFDKTTFRLLRGESNLFYTLAKWENNKLHVELPENIDKQSPTMTLIYDENGQLLWAQRDVPWLMKMIQPDWLKSNGFHEIEADVNDTSLLLSGDHSIQQQLQEVREDDDDAEMTHSVAVNVYPATSRMPKLTIVVVDTIPVELKSSYMVWSWFIYVLSANLLLVIPLLWVAAWWSLRPIEALAKEVRELEEHNRELLNPATTRELTSLVRNLNRLLKSERERYDKYRTTLTDLTHSLKTPLXXLQXXLRSLRSEKMSVSDAEPVMLEQISRISQQIGYYLHRASMRGGTLLSRELHPVAPLLDNLTSALNKVYQRKGVNISLDISPEISFVGEQNDFVEVMGNVLDNACKYCLEFVEISARQTDEHLYIVVEDDGPGIPLSKREVIFDRGQRVDTLRPGQGVGLAVAREITEQYEGKIVAGESMLGGARMEVIFGRQHSAPKDE

The other results are listed elsewhere or left out. Some results are limits rather than exact numbers.

Variants of B1 are the subject of the experiment. In words: enrichment ratio after two sorts for PhoP signalling (ratio (wild type AVST 3.29)); higher = more functional. The following applies: with PhoP (E. coli).
Consider FRWR, for which the enrichment ratio was ≤ 0.25.
In the case of VQQI it was ≤ 0.25.
For KSLH the value was ≤ 0.25; for RKQA, ≤ 0.25.
For SSPN the value was ≤ 0.25.
For the variant VFTA, the enrichment ratio was ≤ 0.25.
In the case of VCWE it was ≤ 0.25.
In the case of HVFH it was ≤ 0.25; in that of QQHP, ≤ 0.25.
For FACS the value was ≤ 0.25; for NSFE, ≤ 0.25; for KRAH, ≤ 0.25.
As to SFTH, the enrichment ratio is ≤ 0.25.
For LTFF the value was ≤ 0.25.
For GIFQ the value was ≤ 0.25; for WIHV, ≤ 0.25; for AVMQ, 9.59.
Consider YMEP, for which the enrichment ratio was ≤ 0.25.
In the case of RLWP it was ≤ 0.25; in that of LLII, ≤ 0.25.
KVHW: the enrichment ratio is ≤ 0.25.
For PTVV the value was ≤ 0.25; for NIHL, 1.27; for TGKF, ≤ 0.25.
For MVFY the value was 0.739; for TVEN, ≤ 0.25.
For MLFQ the value was ≤ 0.25; for ADPT, ≤ 0.25.
Regarding LRAH, the enrichment ratio is ≤ 0.25.
In the case of ERKG it was ≤ 0.25; in that of NHTK, ≤ 0.25; in that of LCTL, ≤ 0.25.
For QWKY the value was ≤ 0.25; for QFSM, ≤ 0.25; for DKYD, ≤ 0.25.
In the case of VSLC it was 5.07; in that of GRRQ, ≤ 0.25.
Take SDVF: the enrichment ratio was ≤ 0.25.
For KIDG the value was ≤ 0.25; for AVNY, ≤ 0.25; for YPTP, ≤ 0.25.
In the case of MLMC it was ≤ 0.25.
In the case of IMCP it was ≤ 0.25; in that of NCPP, ≤ 0.25; in that of YPTF, ≤ 0.25.
On to DLIY, for which the enrichment ratio is ≤ 0.25.
In the case of GCTQ it was ≤ 0.25; in that of KRDY, ≤ 0.25.
For IWCH the value was ≤ 0.25; for EIWP, ≤ 0.25.
For FHPA the value was ≤ 0.25; for SDTA, ≤ 0.25.
Consider PEQD, for which the enrichment ratio was ≤ 0.25.
Consider LMDL, for which the enrichment ratio was ≤ 0.25.
With EMTL, the enrichment ratio was ≤ 0.25.
In the case of INML it was 8.36; in that of WPVG, ≤ 0.25.
Regarding AESW, the enrichment ratio is ≤ 0.25.
In the case of SLVT it was 0.291; in that of LSRC, ≤ 0.25; in that of DKII, ≤ 0.25.
For IKFA the value was ≤ 0.25; for MGRQ, ≤ 0.25; for PQIE, ≤ 0.25.
Consider RVPP, for which the enrichment ratio was ≤ 0.25.
In the case of EFTH it was ≤ 0.25.
For the variant MICW, the enrichment ratio is ≤ 0.25.
In the case of FLFL it was ≤ 0.25.
In the case of SFTW it was ≤ 0.25; in that of HTHM, ≤ 0.25; in that of MPCV, ≤ 0.25.
In the case of PWRE it was ≤ 0.25; in that of NFRP, ≤ 0.25.
As to WQPT, the enrichment ratio was ≤ 0.25.
For NSAA, the enrichment ratio is ≤ 0.25.
For KEHH the value was ≤ 0.25; for ESKV, ≤ 0.25.
Consider TQLA, for which the enrichment ratio stood at 4.57.
In the case of LMLW it was ≤ 0.25; in that of SVQI, 0.298.
Consider IIYL, for which the enrichment ratio is ≤ 0.25.
In the case of RMVP it was ≤ 0.25; in that of SCKV, ≤ 0.25.
Take IFWP: the enrichment ratio is ≤ 0.25.
For WSDQ the value was ≤ 0.25.
For SPVC the value was ≤ 0.25; for DWII, ≤ 0.25; for DSMA, ≤ 0.25.
In the case of YMWM, the enrichment ratio is ≤ 0.25.
GRAA: the enrichment ratio was ≤ 0.25.
Consider RQVQ, for which the enrichment ratio was ≤ 0.25.
In the case of PPHT it was ≤ 0.25; in that of YNNL, ≤ 0.25; in that of PDMT, ≤ 0.25.
For RYAP the value was ≤ 0.25; for NRRF, ≤ 0.25; for IATI, ≤ 0.25.
For ASQF the value was ≤ 0.25; for KMRN, ≤ 0.25.
On to DAIC, for which the enrichment ratio is ≤ 0.25.
In the case of QKCW it was ≤ 0.25; in that of KNMR, ≤ 0.25; in that of NWDR, ≤ 0.25.
In the case of NWHF it was ≤ 0.25; in that of KCHR, ≤ 0.25.
In the case of RRVT it was ≤ 0.25.
As to LWVT, the enrichment ratio was ≤ 0.25.
For IGDG the value was ≤ 0.25; for AWMP, ≤ 0.25; for PDSG, ≤ 0.25.
In the case of RALS it was ≤ 0.25.
For VIGF the value was ≤ 0.25; for ADYD, ≤ 0.25; for NFWK, ≤ 0.25.
For the variant FGAR, the enrichment ratio was ≤ 0.25.
In the case of NTES it was ≤ 0.25.
For LYEE the value was ≤ 0.25; for SAND, ≤ 0.25; for WKQQ, ≤ 0.25.
Regarding YFTA, the enrichment ratio was ≤ 0.25.
For VPQW the value was ≤ 0.25; for YVLW, ≤ 0.25.
In the case of LCWY it was ≤ 0.25; in that of IMYM, ≤ 0.25.
In the case of QETY it was ≤ 0.25; in that of QEAG, ≤ 0.25.
Regarding TEIS, the enrichment ratio turned out to be 11.4.
For GRFP the value was ≤ 0.25.
Consider KGHQ, for which the enrichment ratio is ≤ 0.25.
In the case of HEPL it was ≤ 0.25; in that of AAYR, ≤ 0.25.
In the case of QHHC it was ≤ 0.25; in that of GCDF, ≤ 0.25; in that of HHHR, ≤ 0.25.
In the case of HSLV it was 8.27; in that of EAPR, ≤ 0.25.
In the case of WVMV, the enrichment ratio is ≤ 0.25.
In the case of YYSI it was ≤ 0.25; in that of FMCM, 0.797; in that of KKSI, ≤ 0.25.
With FLLC, the enrichment ratio was ≤ 0.25.
In the case of QWPM it was ≤ 0.25; in that of ASFA, ≤ 0.25; in that of KRLD, ≤ 0.25.
For HTSW the value was ≤ 0.25; for WWTT, ≤ 0.25.
In the case of RPVK, the enrichment ratio is ≤ 0.25.
As for PSIY, the enrichment ratio is ≤ 0.25.
Consider SYPD, for which the enrichment ratio is ≤ 0.25.
For FPFL the value was ≤ 0.25; for QIFW, ≤ 0.25.
For SFES the value was ≤ 0.25.
In the case of SADE it was ≤ 0.25; in that of YFAP, ≤ 0.25; in that of LMMF, ≤ 0.25.
Regarding PRYD, the enrichment ratio was ≤ 0.25.
In the case of LAME it was ≤ 0.25.
As to HRSK, the enrichment ratio is ≤ 0.25.
For QKIA the value was ≤ 0.25.
For SMES the value was ≤ 0.25.
In the case of GIIG it was 3.38; in that of RDDS, ≤ 0.25; in that of PWRF, ≤ 0.25.
FWLK: the enrichment ratio is ≤ 0.25.
For FAHL the value was ≤ 0.25; for RGGD, ≤ 0.25; for IPPM, ≤ 0.25.
In the case of TTHF it was 11.8; in that of PEYN, ≤ 0.25.
In the case of HWDC it was ≤ 0.25.
Take FDLW: the enrichment ratio was ≤ 0.25.
In the case of FPQM it was ≤ 0.25.
For VWDM the value was ≤ 0.25.
Turning to VKTM, the enrichment ratio was ≤ 0.25.
For AYPQ the value was ≤ 0.25.
With HGTA, the enrichment ratio was ≤ 0.25.
For VLLI the value was 0.611.
Regarding TMQG, the enrichment ratio was 11.9.
In the case of FPDY it was ≤ 0.25; in that of CYCR, ≤ 0.25.
Consider SLWT, for which the enrichment ratio was ≤ 0.25.
In the case of LRLW it was 0.358; in that of FMGD, ≤ 0.25.
For SLWA, the enrichment ratio is ≤ 0.25.
For ASGT the value was 8.73; for EAVG, ≤ 0.25.
For LWAA the value was ≤ 0.25; for AVFI, ≤ 0.25.
In the case of AGLM it was 6.12; in that of TIDG, ≤ 0.25; in that of EHWA, ≤ 0.25.
For the variant TLMP, the enrichment ratio was ≤ 0.25.
For RMVY, the enrichment ratio was ≤ 0.25.
For IIKH the value was ≤ 0.25.
For SAQS, the enrichment ratio is ≤ 0.25.
